Laboratory results published in the supplement of paper PMC11876631.
± gives the standard deviation of the averaged measurements. Laboratory Escherichia coli strains with one amino-acid change in an essential protein, pooled on minimal glucose agar with carbenicillin or gentamicin at twice the control MIC (plus kanamycin and chloramphenicol for the plasmids), 48 h. Fold change of barcode share against drug-free plates; higher = less susceptible. Active = above 20 in both replicates (the paper's putatively resistant). '<' = one read or none on drug, '>' = one read or none on a drug-free plate. Shares are relative, so most strains fall below 1 when a few take over. Listed are strains with at least 15 reads on both drug-free plates, and hits; most hits rest on fewer reference reads. Replicate rank correlation about 0.5. Edits are read from barcodes.

Molecular target: Escherichia coli (laboratory strain)
Experiment: barcode share on antibiotic plates over drug-free plates; higher = less susceptible
Experimental: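 A pool of E. coli strains, each edited to carry one amino-acid change in an essential protein, was grown for 48 h on minimal glucose agar with or without antibiotic; strain barcodes were sequenced; mean of two replicates.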

[1] = antibiotic: carbenicillin, 2× MIC (3.1 µg/mL)
[2] = antibiotic: gentamicin, 2× MIC (MIC 0.45 µg/mL)

Protein | fold change of barcode share [1] | fold change of barcode share [2]
argA M439A (protein) MVKERKTELVEGFRHSVPYINTHRGKTFVIMLGGEAIEHENFSSIVNDIGLLHSLGIRLVVVYGARPQIDANLAAHHHEPLYHKNIRVTDAKTLELVKQAAGTLQLDITARLSMSLNNTPLQGAHINVVSGNFIIAQPLGVDDGVDYCHSGRIRRIDEDAIHRQLDSGAIVLMGPVAVSVTGESFNLTSEEIATQLAIKLKAEKMIGFCSSQGVTNDDGDIVSELFPNEAQARVEAQEEKGDYNSGTVRFLRGAVKACRSGVRRCHLISYQEDGALLQELFSRDGIGTQIVMESAEQIRRATINDIGGILELIRPLEQQGILVRRSREQLEMEIDKFTIIQRDNTTIACAALYPFPEEKIGEMACVAVHPDYRSSSRGEVLLERIAAQAKQSGLSKLFVLTTRSIHWFQERGFTPVDIDLLPESKKQLYNYQRKSKVLAADLG | 0.672 ± 0.35 | –
accA V196W (protein) MSLNFLDFEQPIAELEAKIDSLTAVSRQDEKLDINIDEEVHRLREKSVELTRKIFADLGAWQIAQLARHPQRPYTLDYVRLAFDEFDELAGDRAYADDKAIVGGIARLDGRPVMIIGHQKGRETKEKIRRNFGMPAPEGYRKALRLMQMAERFKMPIITFIDTPGAYPGVGAEERGQSEAIARNLREMSRLGVPVWCTVIGEGGSGGALAIGVGDKVNMLQYSTYSVISPEGCASILWKSADKAPLAAEAMGIIAPRLKELKLIDSIIPEPLGGAHRNPEAMAASLKAQLLADLADLDVLSTEDLKNRRYQRLMSYGYA | 0.255 ± 0.037 | 0.00768 ± 0.0067
fabD M88D (protein) MTQFAFVFPGQGSQTVGMLADMAASYPIVEETFAEASAALGYDLWALTQQGPAEELNKTWQTQPALLTASVALYRVWQQQGGKAPAMDAGHSLGEYSALVCAGVIDFADAVRLVEMRGKFMQEAVPEGTGAMAAIIGLDDASIAKACEEAAEGQVVSPVNFNSPGQVVIAGHKEAVERAGAACKAAGAKRALPLPVSVPSHCALMKPAADKLAVELAKITFNAPTVPVVNNVDVKCETNGDAIRDALVRQLYNPVQWTKSVEYMAAQGVEHLYEVGPGKVLTGLTKRIVDTLTASALNEPSAMAAALEL | 0.636 ± 0.5 | < 0.00992
fabD V114D (protein) MTQFAFVFPGQGSQTVGMLADMAASYPIVEETFAEASAALGYDLWALTQQGPAEELNKTWQTQPALLTASVALYRVWQQQGGKAPAMMAGHSLGEYSALVCAGVIDFADAVRLDEMRGKFMQEAVPEGTGAMAAIIGLDDASIAKACEEAAEGQVVSPVNFNSPGQVVIAGHKEAVERAGAACKAAGAKRALPLPVSVPSHCALMKPAADKLAVELAKITFNAPTVPVVNNVDVKCETNGDAIRDALVRQLYNPVQWTKSVEYMAAQGVEHLYEVGPGKVLTGLTKRIVDTLTASALNEPSAMAAALEL | 0.324 ± 0.038 | < 0.00816
fabD V114W (protein) MTQFAFVFPGQGSQTVGMLADMAASYPIVEETFAEASAALGYDLWALTQQGPAEELNKTWQTQPALLTASVALYRVWQQQGGKAPAMMAGHSLGEYSALVCAGVIDFADAVRLWEMRGKFMQEAVPEGTGAMAAIIGLDDASIAKACEEAAEGQVVSPVNFNSPGQVVIAGHKEAVERAGAACKAAGAKRALPLPVSVPSHCALMKPAADKLAVELAKITFNAPTVPVVNNVDVKCETNGDAIRDALVRQLYNPVQWTKSVEYMAAQGVEHLYEVGPGKVLTGLTKRIVDTLTASALNEPSAMAAALEL | 0.372 ± 0.32 | < 0.00905
fabD V114Q (protein) MTQFAFVFPGQGSQTVGMLADMAASYPIVEETFAEASAALGYDLWALTQQGPAEELNKTWQTQPALLTASVALYRVWQQQGGKAPAMMAGHSLGEYSALVCAGVIDFADAVRLQEMRGKFMQEAVPEGTGAMAAIIGLDDASIAKACEEAAEGQVVSPVNFNSPGQVVIAGHKEAVERAGAACKAAGAKRALPLPVSVPSHCALMKPAADKLAVELAKITFNAPTVPVVNNVDVKCETNGDAIRDALVRQLYNPVQWTKSVEYMAAQGVEHLYEVGPGKVLTGLTKRIVDTLTASALNEPSAMAAALEL | 0.378 ± 0.073 | < 0.00549
fabB V185Q (protein) MKRAVITGLGIVSSIGNNQQEVLASLREGRSGITFSQELKDSGMRSHVWGNVKLDTTGLIDRKVVRFMSDASIYAFLSMEQAIADAGLSPEAYQNNPRVGLIAGSGGGSPRFQVFGADAMRGPRGLKAVGPYVVTKAMASGVSACLATPFKIHGVNYSISSACATSAHCIGNAVEQIQLGKQDIQFAGGGEELCWEMACEFDAMGALSTKYNDTPEKASRTYDAHRDGFVIAGGGGMVVVEELEHALARGAHIYAEIVGYGATSDGADMVAPSGEGAVRCMKMAMHGVDTPIDYLNSHGTSTPVGDVKELAAIREVFGDKSPAISATKAMTGHSLGAAGVQEAIYSLLMLEHGFIAPSINIEELDEQAAGLNIVTETTDRELTTVMSNSFGFGGTNATLVMRKLKD | 0.296 ± 0.1 | < 0.00759
fabB F186D (protein) MKRAVITGLGIVSSIGNNQQEVLASLREGRSGITFSQELKDSGMRSHVWGNVKLDTTGLIDRKVVRFMSDASIYAFLSMEQAIADAGLSPEAYQNNPRVGLIAGSGGGSPRFQVFGADAMRGPRGLKAVGPYVVTKAMASGVSACLATPFKIHGVNYSISSACATSAHCIGNAVEQIQLGKQDIVDAGGGEELCWEMACEFDAMGALSTKYNDTPEKASRTYDAHRDGFVIAGGGGMVVVEELEHALARGAHIYAEIVGYGATSDGADMVAPSGEGAVRCMKMAMHGVDTPIDYLNSHGTSTPVGDVKELAAIREVFGDKSPAISATKAMTGHSLGAAGVQEAIYSLLMLEHGFIAPSINIEELDEQAAGLNIVTETTDRELTTVMSNSFGFGGTNATLVMRKLKD | 0.172 ± 0.0097 | 0.0201 ± 0.011
fabB F186A (protein) MKRAVITGLGIVSSIGNNQQEVLASLREGRSGITFSQELKDSGMRSHVWGNVKLDTTGLIDRKVVRFMSDASIYAFLSMEQAIADAGLSPEAYQNNPRVGLIAGSGGGSPRFQVFGADAMRGPRGLKAVGPYVVTKAMASGVSACLATPFKIHGVNYSISSACATSAHCIGNAVEQIQLGKQDIVAAGGGEELCWEMACEFDAMGALSTKYNDTPEKASRTYDAHRDGFVIAGGGGMVVVEELEHALARGAHIYAEIVGYGATSDGADMVAPSGEGAVRCMKMAMHGVDTPIDYLNSHGTSTPVGDVKELAAIREVFGDKSPAISATKAMTGHSLGAAGVQEAIYSLLMLEHGFIAPSINIEELDEQAAGLNIVTETTDRELTTVMSNSFGFGGTNATLVMRKLKD | 0.519 ± 0.53 | < 0.00646
fabB F186W (protein) MKRAVITGLGIVSSIGNNQQEVLASLREGRSGITFSQELKDSGMRSHVWGNVKLDTTGLIDRKVVRFMSDASIYAFLSMEQAIADAGLSPEAYQNNPRVGLIAGSGGGSPRFQVFGADAMRGPRGLKAVGPYVVTKAMASGVSACLATPFKIHGVNYSISSACATSAHCIGNAVEQIQLGKQDIVWAGGGEELCWEMACEFDAMGALSTKYNDTPEKASRTYDAHRDGFVIAGGGGMVVVEELEHALARGAHIYAEIVGYGATSDGADMVAPSGEGAVRCMKMAMHGVDTPIDYLNSHGTSTPVGDVKELAAIREVFGDKSPAISATKAMTGHSLGAAGVQEAIYSLLMLEHGFIAPSINIEELDEQAAGLNIVTETTDRELTTVMSNSFGFGGTNATLVMRKLKD | 0.312 ± 0.28 | < 0.00457
fabB V185P (protein) MKRAVITGLGIVSSIGNNQQEVLASLREGRSGITFSQELKDSGMRSHVWGNVKLDTTGLIDRKVVRFMSDASIYAFLSMEQAIADAGLSPEAYQNNPRVGLIAGSGGGSPRFQVFGADAMRGPRGLKAVGPYVVTKAMASGVSACLATPFKIHGVNYSISSACATSAHCIGNAVEQIQLGKQDIPFAGGGEELCWEMACEFDAMGALSTKYNDTPEKASRTYDAHRDGFVIAGGGGMVVVEELEHALARGAHIYAEIVGYGATSDGADMVAPSGEGAVRCMKMAMHGVDTPIDYLNSHGTSTPVGDVKELAAIREVFGDKSPAISATKAMTGHSLGAAGVQEAIYSLLMLEHGFIAPSINIEELDEQAAGLNIVTETTDRELTTVMSNSFGFGGTNATLVMRKLKD | 0.124 ± 0.052 | < 0.00687
fabB F186Q (protein) MKRAVITGLGIVSSIGNNQQEVLASLREGRSGITFSQELKDSGMRSHVWGNVKLDTTGLIDRKVVRFMSDASIYAFLSMEQAIADAGLSPEAYQNNPRVGLIAGSGGGSPRFQVFGADAMRGPRGLKAVGPYVVTKAMASGVSACLATPFKIHGVNYSISSACATSAHCIGNAVEQIQLGKQDIVQAGGGEELCWEMACEFDAMGALSTKYNDTPEKASRTYDAHRDGFVIAGGGGMVVVEELEHALARGAHIYAEIVGYGATSDGADMVAPSGEGAVRCMKMAMHGVDTPIDYLNSHGTSTPVGDVKELAAIREVFGDKSPAISATKAMTGHSLGAAGVQEAIYSLLMLEHGFIAPSINIEELDEQAAGLNIVTETTDRELTTVMSNSFGFGGTNATLVMRKLKD | 0.332 ± 0.28 | < 0.00992
fabB V185D (protein) MKRAVITGLGIVSSIGNNQQEVLASLREGRSGITFSQELKDSGMRSHVWGNVKLDTTGLIDRKVVRFMSDASIYAFLSMEQAIADAGLSPEAYQNNPRVGLIAGSGGGSPRFQVFGADAMRGPRGLKAVGPYVVTKAMASGVSACLATPFKIHGVNYSISSACATSAHCIGNAVEQIQLGKQDIDFAGGGEELCWEMACEFDAMGALSTKYNDTPEKASRTYDAHRDGFVIAGGGGMVVVEELEHALARGAHIYAEIVGYGATSDGADMVAPSGEGAVRCMKMAMHGVDTPIDYLNSHGTSTPVGDVKELAAIREVFGDKSPAISATKAMTGHSLGAAGVQEAIYSLLMLEHGFIAPSINIEELDEQAAGLNIVTETTDRELTTVMSNSFGFGGTNATLVMRKLKD | 0.188 ± 0.067 | –
